{"source": "PubChem BioAssay AID686979", "about": "(National Center for Advancing Translational Sciences (NCATS), 2013)", "note": "Several values for one entry are separate records, joined by “and”; a condition that tells them apart may be missing. Equal values may be shown once. Hit rate of the full screen: of about 420,000 compounds, about 50,000 (12%) were called active. Inconclusive results, whose numbers are uncertain, are shown with a selection of clear calls. Calls come from the whole dose curve; as a rule, active = well fitted inhibition curve with a large enough effect; inconclusive = small, poorly fitted or top-dose-only effect; inactive = flat fitted curve, though single readings scatter. Potencies of inconclusive entries are doubtful fits and often do not repeat. % is set by controls: 0 for no effect and ±100 for the full control effect; potency is the fitted concentration of half-maximal effect; tags give direction and shape of the fitted curve."}
{"test": "qHTS for Inhibitors of human tyrosyl-DNA phosphodiesterase 1 (TDP1): qHTS in cells in presence of CPT; note: nearly all actives have a fitted effect of over 55% in size", "conditions": "chicken DT40 Tdp1-/-;hTDP1 cells + 20 nM CPT, ATP luminescence, 48 h; activity change, negative = growth inhibition: at 46.2 µM (top of the series)", "in_short": "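Cell growth measured by CellTiter-Glo luminescence after a minimum 48 h, 37 C compound exposure with 20 nM CPT in Tdp1-knockout DT40 cells stably expressing hTDP1, seeded 400/well; qHTS titration format.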"}
{"smiles": "CCN(C(=S)NC(=O)c1ccco1)c1cccc2ccccc12", "Potency": "inconclusive: 29.1 µM [inhibitor, single point]"}
{"smiles": "CCOC(=O)c1c(NC(=O)COc2ccc(F)cc2)sc2c1CCC(C)C2", "note": "(stereo unspecified)", "activity change, negative = growth inhibition": "inactive: -24.2%"}
{"smiles": "O=C(NCCCN1CCN(c2ccccc2F)CC1)c1nnc(Cc2ccc(Cl)cc2Cl)o1", "Potency": "active: 20.6 µM"}
{"smiles": "CCCCC/C=C\\C/C=C\\CCCCCCCC(=O)NC(C)c1ccccc1", "note": "(stereo unspecified)", "activity change, negative = growth inhibition": "inactive: -14.8%"}
{"smiles": "COc1ccc(C(=O)c2ccccc2CN2C(=O)c3ccccc3C2=O)cc1", "Potency": "inconclusive: 20.6 µM [inhibitor, single point]"}
{"smiles": "COc1ccc(Nc2ncnc3sc(-c4ccccc4)cc23)cc1OC", "Potency": "inconclusive: 20.6 µM [inhibitor, single point]"}
{"smiles": "CCOC(=O)Cn1c2c(c(=N)c3c1CCC3)CCC2", "activity change, negative = growth inhibition": "inactive: -7.69%"}
{"smiles": "COc1ccc2[nH]cc(/C=C/c3cc[n+](C)cc3)c2c1", "Potency": "inconclusive: 5.8 µM [inhibitor, partial curve, poor fit]"}
{"smiles": "O=C(Cc1ccc(S(=O)(=O)N2CCCC2)s1)NC1CCCCCC1", "Potency": "inconclusive: 18.4 µM [inhibitor, single point]"}
{"smiles": "S=C(NCc1cccs1)Nc1cc(Cl)cc(Cl)c1", "Potency": "inconclusive: 25.9 µM [inhibitor, single point]"}
{"smiles": "CN(Cc1ccccc1)c1ccc(/C=C/c2ccnc3ccccc23)cc1", "Potency": "active: 12.6 µM"}
{"smiles": "CC1CCN(Cc2c(C#N)c3ccccc3n2C)CC1", "activity change, negative = growth inhibition": "inactive: -21.5%"}
{"smiles": "CCCCCN(C(=O)CCC(=O)OCC(=O)Nc1ccc(C)cc1F)c1c(N)n(CCCC)c(=O)[nH]c1=O", "activity change, negative = growth inhibition": "inconclusive: -36% [inhibitor]"}
{"smiles": "CCCCN(C)CCNC(=O)c1nn(-c2ccc(OC)cc2)c(=O)c2c1c1ccccc1n2C", "Potency": "inconclusive: 20.6 µM [inhibitor, single point] and inconclusive: 29.1 µM [inhibitor, single point]"}
{"smiles": "CC(C)(C)C(=O)Nc1cccc(-c2nc3ccccc3[nH]2)c1", "Potency": "inconclusive: 29.1 µM [inhibitor, single point]"}
{"smiles": "CCOC(=O)C(C)n1cnc2c(nnn2Cc2ccc(C)cc2)c1=O", "note": "(stereo unspecified)", "activity change, negative = growth inhibition": "inconclusive: -34.4% [inhibitor]"}
{"smiles": "C/C(=N\\NC(=O)COc1ccccc1-c1ccccc1)c1ccc(O)cc1O", "Potency": "active: 20.6 µM"}
{"smiles": "O=C1N/C(=N/N=C/c2ccc(F)cc2)SC1c1ccccc1", "note": "(stereo unspecified)", "Potency": "inconclusive: 29.1 µM [inhibitor, single point]"}
{"smiles": "COC(=O)N1CCN(c2ccc(Cl)c(Cl)c2)CC1", "Potency": "inconclusive: 23.1 µM [inhibitor, single point]"}
{"smiles": "O=C(CSc1nc2ccccc2n1Cc1ccccc1Cl)NCc1ccccc1", "Potency": "active: 14.6 µM"}
{"smiles": "N#Cc1ccc(CSc2nnc(-c3ccccc3)n2Cc2ccco2)cc1", "Potency": "inconclusive: 29.1 µM [inhibitor, single point]"}
{"smiles": "N#C/C(=C\\c1ccc(-c2cc(Cl)ccc2Cl)o1)C(=O)Nc1ccccc1C(=O)O", "activity change, negative = growth inhibition": "inactive: -29.8%"}
{"smiles": "COc1ccc(F)cc1S(=O)(=O)N1CCC2(CC1)OCCN2S(=O)(=O)c1ccccc1", "Potency": "inconclusive: 16.4 µM [inhibitor, partial curve, poor fit]"}
{"smiles": "CC(=O)N/N=C/c1ccccc1OCCOc1cccc(C)c1", "Potency": "inconclusive: 29.1 µM [inhibitor, single point]"}
{"smiles": "O=C(c1ccccc1F)N1CCN(Cc2nc3sc4c(c3c(=O)[nH]2)CCCC4)CC1", "activity change, negative = growth inhibition": "inactive: 1.78%"}
{"smiles": "Cc1cc(=O)[nH]c(SCC(=O)NCc2ccco2)n1", "activity change, negative = growth inhibition": "inactive: -10.9%"}
{"smiles": "CCOc1ccc(-c2c(C(=O)N/N=C/c3c[nH]c4ccccc34)nnn2-c2nonc2N)cc1", "Potency": "inconclusive: 29.1 µM [inhibitor, single point]"}
{"smiles": "Cc1cnc(NC(=O)c2c(-c3ccccc3)noc2C)s1", "activity change, negative = growth inhibition": "inactive: -22.9%"}
{"smiles": "N#CCCN(C(=O)COC(=O)Cc1ccc(Br)cc1)c1ccccc1", "activity change, negative = growth inhibition": "inactive: 0.878%"}
{"smiles": "COc1ccccc1-c1cc(C(=O)NCc2ccccc2)no1", "Potency": "inconclusive: 2.59 µM [inhibitor, full curve, poor fit]"}
{"smiles": "Cc1ccccc1OC1=NS(=O)(=O)c2ccccc21", "Potency": "inconclusive: 23.1 µM [inhibitor, single point]"}
{"smiles": "N#C/C(=C(/O)COC(=O)CCC1CCCCC1)c1nc2ccccc2[nH]1", "Potency": "active: 5.17 µM"}
{"smiles": "CC(=O)n1cc([C@H]2C=C(C(=O)NCc3ccccc3)O[C@@H](OCc3ccc(CO)cc3)C2)c2ccccc21", "Potency": "active: 5.8 µM"}
{"smiles": "CCOc1cc(/C=N/NC(=O)c2ccc(NC(=O)C3CC3)cc2)ccc1O", "Potency": "inconclusive: 29.1 µM [inhibitor, single point]"}
{"smiles": "CCNc1ncc2nc(-c3cc(F)cc(F)c3)c(=O)n(CCc3ccccc3)c2n1", "Potency": "inconclusive: 25.9 µM [inhibitor, single point]"}
{"smiles": "Cc1cc(C)c(Cn2c(C(O)c3ccccc3)nc3ccccc32)c(C)c1", "note": "(stereo unspecified)", "Potency": "active: 18.4 µM"}
{"smiles": "COCCNC(=O)CN1C(=O)NC2(CCCc3cc(OC)ccc32)C1=O", "note": "(stereo unspecified)", "activity change, negative = growth inhibition": "inactive: 7.96%"}
{"smiles": "CN(C)c1nc(NCc2ccccc2)nc(SCC(=O)Nc2ccccc2)n1", "Potency": "inconclusive: 29.1 µM [inhibitor, single point]"}
{"smiles": "COc1cccc(CNC(=O)CCNS(=O)(=O)c2ccc3c(c2)oc(=O)n3C)c1", "Potency": "inconclusive: 23.1 µM [inhibitor, single point]"}
{"smiles": "Cc1ccc(S(=O)(=O)N(C)C[C@@H]2OCc3cn(nn3)CCCC(=O)N([C@H](C)CO)C[C@H]2C)cc1", "activity change, negative = growth inhibition": "inactive: -25.1%"}
{"smiles": "CC(CCc1ccccc1)OS(N)(=O)=O", "note": "(stereo unspecified)", "activity change, negative = growth inhibition": "inactive: -19%"}
{"smiles": "Cn1nc(-c2ccc(C(=O)NC3CCCCC3)cc2)c2ccccc2c1=O", "activity change, negative = growth inhibition": "inactive: -11.5%"}
{"smiles": "COc1ccc(C2=NN(C(=O)CSc3nc(=O)n4cc(C)ccc4n3)C(c3ccc(C)cc3)C2)cc1", "note": "(stereo unspecified)", "Potency": "inconclusive: 16.4 µM [inhibitor, single point]"}
{"smiles": "CCn1cc2nc(SCc3ccccc3F)n(Cc3ccc(C)cc3)c(=O)c2n1", "Potency": "active: 20.6 µM"}
{"smiles": "COc1cc(NC(=O)CN2CCN(CC(=O)Nc3ccccc3OC)CC2)cc(OC)c1", "Potency": "active: 16.4 µM"}
{"smiles": "CC(C(=O)N1CCc2ccccc21)N(C)CC(=O)Nc1ccc(F)cc1", "note": "(stereo unspecified)", "Potency": "inconclusive: 23.1 µM [inhibitor, partial curve, poor fit]"}
